Test results published in paper PMC9433428.
Results are given in words; binding and its absence hold for the method and conditions named. In cells and extracts the contact can be indirect. Some results given as binding are weak or reduced against the parent protein; the word gives no strength. Values belong to the binder of their own block, whether it stands above or below them.

Sequences of proteins named here, by UniProt entry; tags and fusion partners are left off. A change or cut given only in a name is not applied to a line headed by its entry.
UniProt P55771: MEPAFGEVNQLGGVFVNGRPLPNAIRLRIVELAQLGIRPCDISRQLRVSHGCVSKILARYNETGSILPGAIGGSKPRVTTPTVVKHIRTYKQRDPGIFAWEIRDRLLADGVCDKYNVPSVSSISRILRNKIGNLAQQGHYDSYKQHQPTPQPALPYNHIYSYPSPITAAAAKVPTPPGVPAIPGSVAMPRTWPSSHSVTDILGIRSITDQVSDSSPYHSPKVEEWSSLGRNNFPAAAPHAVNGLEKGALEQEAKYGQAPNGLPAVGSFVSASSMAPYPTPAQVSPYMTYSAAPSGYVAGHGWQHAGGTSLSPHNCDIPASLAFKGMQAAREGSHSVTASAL
UniProt P28360: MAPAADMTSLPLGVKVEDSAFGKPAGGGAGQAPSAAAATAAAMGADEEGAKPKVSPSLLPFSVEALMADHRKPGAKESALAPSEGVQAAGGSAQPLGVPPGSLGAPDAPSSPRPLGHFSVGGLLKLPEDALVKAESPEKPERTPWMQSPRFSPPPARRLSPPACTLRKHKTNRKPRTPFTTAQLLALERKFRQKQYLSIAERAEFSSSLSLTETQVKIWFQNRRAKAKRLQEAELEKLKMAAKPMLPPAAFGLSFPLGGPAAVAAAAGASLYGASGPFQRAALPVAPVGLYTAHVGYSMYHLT

Legend:
[1] = biological target: Endogenous PAX9 (paired box gene 9 protein) (human (endogenous in hDPSCs)) (UniProt P55771); assay: co-IP; endogenous proteins; hDPSC lysates (2-3 mg) immunoprecipitated with USP49, PAX9 or MSX1 antibodies at 4 °C overnight, protein agarose beads; lysis buffer 25 mM Tris-HCl pH 7.4, 150 mM NaCl, 1 mM EDTA, 1% NP-40, 5% glycerol
[2] = biological target: Endogenous MSX1 (Msh Homeobox 1 protein) (human (endogenous in hDPSCs)) (UniProt P28360); assay: as above
[3] = biological target: Endogenous PAX9 (paired box gene 9 protein) (human (endogenous in hDPSCs)) (UniProt P55771); assay: proximity ligation; Duolink in situ PLA in fixed hDPSCs with primary antibodies to USP49, PAX9 and MSX1; endogenous proteins
[4] = biological target: Endogenous MSX1 (Msh Homeobox 1 protein) (human (endogenous in hDPSCs)) (UniProt P28360); assay: as above
[5] = biological target: PAX9 (as used in the co-immunoprecipitation with USP49 variants, Fig. 5B) (human) (UniProt P55771); assay: co-IP; USP49-FL, USP49-N (1-250) and USP49-C (251-640) with PAX9 or MSX1; IP and immunoblotting with the indicated antibodies; cells and direction of the IP not stated
[6] = biological target: MSX1 (as used in the co-immunoprecipitation with USP49 variants, Fig. 5C) (human) (UniProt P28360); assay: as above

- binding [1]: binds
- binding [2]: binds
- binding [3]: binds
- binding [4]: binds
B1: Endogenous USP49 (ubiquitin-specific protease 49) (enzyme, UniProt Q70CQ1 1-688)
chain: MDRCKHVGRLRLAQDHSILNPQKWCCLECATTESVWACLKCSHVACGRYIEDHALKHFEETGHPLAMEVRDLYVFCYLCKDYVLNDNPEGDLKLLRSSLLAVRGQKQDTPVRRGRTLRSMASGEDVVLPQRAPQGQPQMLTALWYRRQRLLARTLRLWFEKSSRGQAKLEQRRQEEALERKKEEARRRRREVKRRLLEELASTPPRKSARLLLHTPRDAGPAASRPAALPTSRRVPAATLKLRRQPAMAPGVTGLRNLGNTCYMNSILQVLSHLQKFRECFLNLDPSKTEHLFPKATNGKTQLSGKPTNSSATELSLRNDRAEACEREGFCWNGRASISRSLELIQNKEPSSKHISLCRELHTLFRVMWSGKWALVSPFAMLHSVWSLIPAFRGYDQQDAQEFLCELLHKVQQELESEGTTRRILIPFSQRKLTKQVLKVVNTIFHGQLLSQVTCISCNYKSNTIEPFWDLSLEFPERYHCIEKGFVPLNQTECLLTEMLAKFTETEALEGRIYACDQCNSKRRKSNPKPLVLSEARKQLMIYRLPQVLRLHLKRFRWSGRNHREKIGVHVVFDQVLTMEPYCCRDMLSSLDKETFAYDLSAVVMHHGKGFGSGHYTAYCYNTEGGFWVHCNDSKLNVCSVEEVCKTQAYILFYTQRTVQGNARISETHLQAQVQSSNNDEGRPQTFS

- binding [5]: no binding
- binding [6]: no binding
B2: N-terminus USP49 (1-250 aa) encoding the ZnF-UBP domain (domain or fragment, UniProt Q70CQ1 1-250)
chain: MDRCKHVGRLRLAQDHSILNPQKWCCLECATTESVWACLKCSHVACGRYIEDHALKHFEETGHPLAMEVRDLYVFCYLCKDYVLNDNPEGDLKLLRSSLLAVRGQKQDTPVRRGRTLRSMASGEDVVLPQRAPQGQPQMLTALWYRRQRLLARTLRLWFEKSSRGQAKLEQRRQEEALERKKEEARRRRREVKRRLLEELASTPPRKSARLLLHTPRDAGPAASRPAALPTSRRVPAATLKLRRQPAMAP
